Laboratory results: paper PMC6919601, “Identification of Plasmodium dipeptidyl aminopeptidase allosteric inhibitors by high throughput screening” (PLoS ONE, 2019)
The whole screen tested about 110,000 compounds, of which about 230 (0.21%) showed an effect of 50% or more. The list shows a part of the results.

Target: DPAP1 (Plasmodium falciparum, UniProt Q8IIJ9)
Test: primary screen, percent inhibition; read by cleavage of a fluorogenic dipeptide substrate; higher = more effect of the substance
Design: species or system P. falciparum D10 trophozoite lysates; single well
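Note: 30 min substrate incubation versus DMSO and 10 µM JCP410 controls.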

Chain of DPAP1 (Q8IIJ9 whole entry, looked up): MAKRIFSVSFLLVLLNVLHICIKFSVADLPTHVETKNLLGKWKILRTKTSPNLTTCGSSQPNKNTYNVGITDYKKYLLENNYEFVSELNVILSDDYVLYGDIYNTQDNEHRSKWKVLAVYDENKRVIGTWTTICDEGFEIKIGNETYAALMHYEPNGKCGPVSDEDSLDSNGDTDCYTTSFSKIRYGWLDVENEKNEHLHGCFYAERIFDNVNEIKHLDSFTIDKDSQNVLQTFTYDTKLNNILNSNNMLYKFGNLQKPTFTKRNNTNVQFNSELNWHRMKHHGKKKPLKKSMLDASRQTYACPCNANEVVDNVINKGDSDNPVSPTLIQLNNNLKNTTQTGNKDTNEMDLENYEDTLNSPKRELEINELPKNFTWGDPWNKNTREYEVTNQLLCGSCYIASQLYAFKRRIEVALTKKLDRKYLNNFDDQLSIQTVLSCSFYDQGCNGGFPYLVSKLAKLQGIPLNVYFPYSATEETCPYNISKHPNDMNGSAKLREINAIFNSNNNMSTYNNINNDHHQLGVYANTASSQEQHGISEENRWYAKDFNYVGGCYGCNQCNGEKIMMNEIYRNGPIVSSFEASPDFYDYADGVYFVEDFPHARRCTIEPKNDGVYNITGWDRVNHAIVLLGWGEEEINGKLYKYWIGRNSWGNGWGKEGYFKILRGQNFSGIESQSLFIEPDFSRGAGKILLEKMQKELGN

| SMILES | % Inhibition @ 10 uM |
| --- | --- |
| COc1ccc(-c2cc(-c3ccccc3)nc(SCC(=N)NC#N)c2C#N)cc1 | 33.3% |
| C=CCn1c(SCC(=O)NCCOc2ccccc2)nnc1-c1ccc(OC)cc1 | -7.3% |
| Cc1cc(OCC(=O)Nc2cc(Cl)ccc2C)ccc1Br | -4.87% |
| CCOc1ccc(NC(=O)CSc2nc3ccc(OC)cc3cc2C#N)cc1 | -2.64% |
| CC1(C)CC2=Nc3ccccc3NC(c3cc(Cl)ccc3O)C2=C(O)C1 (stereo not drawn) | -2.07% |
| CCN1CCN(CCCNC(=O)c2cc3sccc3n2CC)CC1 | -3.08% |
| COc1cc2cc(C(=O)Nc3ccccc3)c(N)nc2cc1OC | -18.8% |
| O=C(Cn1ncc2c3ccccc3nc-2c1O)N1CCN(Cc2ccc3c(c2)OCO3)CC1 | -0.968% |
| N#CC1=C2SCN(Cc3ccco3)CN2C(=O)CC1c1cccc(OCc2ccccc2)c1 (stereo not drawn) | 66.7% |
| COc1cc(/C=C2/SC(N3CCCCC3)=NC2=O)ccc1O | -4.89% |
| COc1cc(CNCCSc2nnnn2C)cc(Br)c1OCc1cccnc1 | -7.24% |
| COC(=O)C(Cc1ccc(O)cc1)NC(=O)c1ccccc1OC (stereo not drawn) | 11.6% |
| CC(=O)NS(=O)(=O)c1ccc(NC(=O)c2ccccc2Cl)cc1 | 1.49% |
| CN(Cc1cccc(Cl)c1Cl)CC(O)c1ccccc1 (stereo not drawn) | -1.75% |
| Cc1ccccc1NC(=O)c1cccc(-n2c(C)ccc2C)c1 | -7.35% |
| O=c1c2ccccc2nc(-c2ccco2)n1Cc1ccccc1 | 0.76% |
| C(#CC1(N2CCOCC2)CCCC1)c1ccccc1 | 3.01% |
| C=CCn1c(=O)c(C(=O)Nc2cccnc2)c(O)c2ccccc21 | -8.75% |
| Cn1c(NCc2cccnc2)nc2c1c(=O)n(Cc1ccccc1F)c(=O)n2C | -1.47% |
| O=C(NCCO)C1(c2ccccc2)CCCC1 | -0.641% |
| CCn1cc(C(=O)O)cn1 | -5% |
| CCOc1ccc(C(=O)NC(C)CC(C)C)cc1 (stereo not drawn) | -1.42% |
| Cc1nn(CC(=O)NCCC(C)C)c(=O)c2nn(-c3ccccc3)c(C)c12 | 5.3% |
| CCCc1ccc(C#N)c(SCc2nnc(-c3ccc(Cl)cc3)o2)n1 | 0.408% |
| CC1CC(C)CN(CCCNC(=O)Cn2ncc3c4ccccc4nc-3c2O)C1 (stereo not drawn) | 3.27% |
| COC(=O)c1cc(Oc2ncnc3sc(C)c(C)c23)cc(C(=O)OC)c1 | -10.8% |

| SMILES | % Inhibition @ 10 uM |
| --- | --- |
| CC(NS(=O)(=O)c1ccc(CCC(=O)Nc2ccccc2)cc1)c1ccccc1 (stereo not drawn) | -0.519% |
| CCOC(=O)C1=C(CS(=O)(=O)c2ccc(C)c(C)c2)NC(=O)NC1c1ccc(O)c(O)c1 (stereo not drawn) | -2.16% |
| Cc1ccc(C)c(Cn2c(CN3CC(C)OC(C)C3)nc3c2c(=O)n(C)c(=O)n3C)c1 (stereo not drawn) | -0.499% |
| CC(C)CCNC(=O)COc1cc(Cl)c(Cl)cc1Cl | -1.55% |
| CSc1ccc(C2SCC(=O)N2C2CCCCC2)cc1 (stereo not drawn) | -3.08% |
| CCN(CC)C1CC(=O)N(c2c(C)cc(C)cc2C)C1=O (stereo not drawn) | -3.65% |
| COc1c(C(C)C)oc2cc3oc(=O)ccc3cc12 | 2.13% |
| O=C(Cn1c(=O)c2cccn2c2cccnc21)N1CCN(Cc2ccccc2)CC1 | -3.56% |
| CC(=O)c1ccc(NC(=O)C23CC4CC(CC(C4)C2)C3)cc1 | -6.22% |
| O=C(NCc1ccco1)N(Cc1ccc2c(c1)OCO2)C1CCN(Cc2ccccc2)CC1 | 5.14% |
| Cc1ccc2c(c1)-c1c(cnn1CC(=O)N(CCN(C)C)Cc1ccco1)CO2 | -5.03% |
| N#Cc1c(N)nc2c(c1-c1cccc(O)c1)CCCCC2 | -2.7% |
| COc1cc(CN2CCN(Cc3ccccc3)CC2)cc(OC)c1O | 1.48% |
| Cc1onc(-c2ccccc2)c1C(=O)N1CCCc2ccccc21 | -5.46% |
| COc1cc(NC(=O)COc2ccccc2)c(C(=O)O)cc1OC | -3.72% |
| CCOC(=O)C1CCN(C(=O)c2ccc([N+](=O)[O-])o2)CC1 | 5.69% |
| COc1cc(-c2cc(NC(=O)c3noc4c3CCCCC4)on2)cc(OC)c1OC | 1.23% |
| O=C(O)C1CCCN(S(=O)(=O)N2CCCCC2)C1 (stereo not drawn) | -1.6% |
| CCOc1ccc(NC(=O)CN(Cc2ccccc2)S(C)(=O)=O)cc1 | 0.512% |
| COCCN1C(=O)c2ccccc2C1=O | -2.83% |
| CN1CCN(C(=O)/C(=C/c2ccco2)NC(=O)c2ccccc2)CC1 | 4.07% |
| CCOC(=O)c1cc(-c2ccc(OC)c(S(=O)(=O)NCCOC)c2)on1 | -9.47% |
| CC(C)CCNC(=O)Cn1cccc1C(=O)c1ccccc1 | 1.15% |
| O=C1C2CC3CC1CC(C(=O)N1CCOCC1)(C3)C2 | -1.05% |
| Cc1nn(Cc2noc(C(=O)NCc3ccco3)n2)c(C)c1Br | -2.28% |
| CCS(=O)(=O)c1ncc(Cl)c(C(=O)Nc2sc3c(c2C(=O)NC)CCCC3)n1 | -6.5% |

| SMILES | % Inhibition @ 10 uM |
| --- | --- |
| CCOc1ccc2nc(/N=C/c3nc(-c4ccccc4)oc3O)sc2c1 | -2.27% |
| CCCOc1ccc(Cc2nn3c(=O)/c(=C\C4=Cc5ccccc5OC4)sc3nc2=O)cc1 | 2.9% |
| Cc1ccc(C2C(C#N)=C(N)OC3=C2C(=O)CC(C)(C)C3)cc1 (stereo not drawn) | -4.35% |
| CCN(CC)CCCNC(=O)c1ccccc1F | 0.795% |
| COc1ccccc1C(=O)N/C(=C/c1ccc2c(c1)OCO2)C(=O)Nc1ccc(C(=O)O)cc1 | 4.01% |
| COc1ccc(-c2nc(Cn3c(SCc4cccc(OC)c4)nc4ccncc43)c(C)o2)cc1 | -4.38% |
| CCC(C(=O)Nc1nnc(S(=O)(=O)N(C)Cc2ccccc2)s1)c1ccccc1 (stereo not drawn) | 1.36% |
| OC(CN1CCOCC1)CN(c1ccccc1)c1ccccc1 (stereo not drawn) | -0.239% |
| Cc1ccc(Oc2nc3c(C)cccn3c(=O)c2/C=C(\C#N)C(=O)NCCCOC(C)C)cc1 | -1.43% |
| Cc1ccc(O)c(NC(=O)c2ccc(Cl)cc2Cl)c1 | 1.92% |
| COc1cc(C2c3c(C)n[nH]c3C(=O)N2C)ccc1O (stereo not drawn) | 2.29% |
| CCN(Cc1ccccc1)C(=O)c1ccc(Cl)cc1 | 1.87% |
| Cc1c(-c2ccccc2)nc2sc3c(c2c1N)CCCC3 | 1.27% |
| CCCc1[nH]nc2c1C(c1ccc(Cl)c(Cl)c1)C(C#N)=C(N)O2 (stereo not drawn) | -2.24% |
| CCOc1ccc(C(=O)Nc2nnc(S(=O)(=O)N(C)Cc3ccco3)s2)cc1 | 5.8% |
| CCc1ccc(C2=NN(CCC(=O)N3CCC4(CC3)OCCO4)C(=O)CC2)cc1 | -0.971% |
| O=C1CSC(c2ccccc2F)N1Cc1ccccc1 (stereo not drawn) | 1.52% |
| CCOc1cc(C)c(/C=C2\SC(=O)N(CC(=O)N3CCOCC3)C2=O)cc1C(C)C | 1.52% |
| CC(=O)N1CCN(c2ccc(NCc3c(Cl)cccc3Cl)cc2)CC1 | 2.44% |
| CCC1CCCCN1C(=O)Cn1nc(C)n2c(cc3cc(C)ccc32)c1=O (stereo not drawn) | -2% |
| O=S(=O)(c1ccc2nc(O)ccc2c1)N(CCc1ccccc1)Cc1ccccc1 | 6.38% |
| CCCc1ncc(C(O)(c2ccccc2)c2ccccc2)n1C | -1.54% |
| CCCOc1ccccc1C(=O)N[C@@H](CC(C)C)C(=O)NCC#N | 12.3% |
| Fc1ccc(CN2CCN(c3ccc(Cl)cc3)CC2)cc1F | -3.77% |
| COCCCNC(=O)CCCc1cn(C)c2ccccc12 | 0.0845% |
| Cc1ccc(/C=C2/SC(=O)N(CC(=O)Nc3ccccc3C)C2=O)s1 | 2.22% |

| SMILES | % Inhibition @ 10 uM |
| --- | --- |
| CCOC(=O)C1=C(CN2CCN(C)CC2)NC(=O)NC1c1ccc(OC(C)C)cc1 (stereo not drawn) | 0.708% |
| CC12CCC3c4ccc(O)c(Br)c4CCC3C1CCC2=O (stereo not drawn) | -2.15% |
| O=C(Nc1cccc(-c2cn3ccsc3n2)c1)c1ccc(Cl)cc1 | -4.03% |
| CCN(CC)c1ccc(NC(=O)C2CC[C@](C)(C(=O)O)C2(C)C)cc1 (stereo partly drawn) | 3.53% |
| Cc1c(O)nc(-c2ccccc2)nc1-c1ccccc1 | 1.15% |
| O=C(Cn1ncn2c(cc3sccc32)c1=O)NCc1ccccc1Cl | -7.1% |
| CC1CCCCN1c1ncnc2ccccc12 (stereo not drawn) | -2.47% |
| CCN1CCN(CC(=O)Nc2sc3c(c2C#N)CCCC3)CC1 | 38% |
| O=C(CCCc1c[nH]c2ccccc12)NC1=NCCS1 | 0.238% |
| Cc1c(Cl)cccc1-n1nnc(-c2nc(-c3ccncc3)no2)c1N | 3.98% |
| CC(C)Nc1ncnc2c1c(-c1ccccc1)cn2-c1ccccc1 | 5.23% |
| CCOc1ccc(Sc2cc(C(=O)NCc3ccco3)c3ccccc3n2)cc1 | -0.0542% |
| Cc1ccccc1NS(=O)(=O)c1cc(C(=O)O)cc(C)c1C | -7% |
| CCCCOc1ccc(C(=O)Nc2cccc(C(=O)O)c2)cc1 | 0.035% |
| Cc1ccc(CN2CCc3c([nH]c4ccccc34)C2)o1 | -3.27% |
| CC(NC(=O)Nc1cccc(Cl)c1)c1ccccc1 (stereo not drawn) | -3.56% |
| N#Cc1cccc(NC(=O)c2ccc(-c3ccccc3)cc2)c1 | -0.771% |
| CCOCCCNCc1ccc(OC)cc1 | -4.97% |
| Clc1ccc(C2=CSC3=NCCN23)cc1Cl | 3.06% |
| CC[C@H](NC(=O)[C@H](CCC(=O)Nc1ccccc1)NC(=O)c1ccc(Br)cc1)C(=O)c1nc2ccccc2o1 | 0.173% |
| CCCC(=O)N1CCC(c2ccc(OC)cc2)=N1 | 2.25% |
| COc1ccc(OC)c2nc(O)c(CCNS(=O)(=O)c3c(C)cc(C)cc3C)cc12 | -0.396% |
| CCc1ccc(CN(C(=O)c2ccco2)C2CCS(=O)(=O)C2)cc1 (stereo not drawn) | -4.62% |
| NC(=O)CCC1S(=O)(=O)CC(c2ccccc2)CS1(=O)=O (stereo not drawn) | -2.55% |
